Assay results reported in PubChem BioAssay AID588855 (National Center for Advancing Translational Sciences (NCATS), 2011).
The campaign covered roughly 410,000 compounds. About 5,000 (1.2%) were called active. The inconclusive results got no clear call from the source; some entries with a clear call stand among them for comparison. The call rests on the fitted dose curve; in most records, active means well fitted inhibition curve with a large enough effect; inconclusive means small, poorly fitted or top-dose-only effect; inactive means no such curve, though single readings can be large or run the other way. A potency beside an inconclusive call is a rough fit, not a confirmed value.
On the % scale 0 is the no-effect control and ±100 the full control effect; potency means the concentration at half of the fitted maximal effect; tags describe the fitted curve by direction and shape.

Assay: qHTS for Inhibitors of TGF-b; further: nearly all actives have a fitted effect of over 65% in size
Settings: HepG2 CAGA-GFP TGF-b/SMAD3 reporter, GFP fluorescence, 18 h, TGF-beta stimulated, 500 pg/mL final; series mostly up to 46.1 µM; activity, negative = inhibition: at the top concentration
In short: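 Per well, imaged GFP fluorescence of HEPG2 CAGA-GFP cells gives the signal; cells get compound, then TGF-beta (500 pg/mL final), 18 h at 37 degrees C; %Activity versus -TGF-beta and +DMSO controls.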
With COc1ccc(NC(=O)CSc2nc3ccsc3c(=O)n2Cc2ccccn2)c(OC)c1 the Potency was inconclusive: 22.4 µM [inhibitor, single point].
For c1ccc2c(c1)CCCN2, the Potency was inconclusive: 6.31 µM [inhibitor, full curve, poor fit].
In the case of CCCCn1nnnc1C(c1ccc(OC)cc1)N1CCN(C/C=C/c2ccccc2)CC1 (centres undefined), the Potency is reported as inconclusive: 20 µM [inhibitor, single point].
With Cc1ccc(S(=O)(=O)N2CCN(C3CC4CCC3C4)CC2)cc1 (centres undefined) the “activity, negative = inhibition” value was inactive: 2.91%.
With Cc1nc2nc(SCC(=O)c3cccc([N+](=O)[O-])c3)[nH]c2cc1Br the Potency was inconclusive: 5.62 µM [inhibitor, partial curve].
For Cc1ccccc1/C=N/N1C(=O)CSC1=S, the “activity, negative = inhibition” value was inactive: -19.2%.
In the case of CCn1c(C(=O)N2CCCC(C(=O)NCCc3ccc(C)cc3)C2)cc2sccc21 (centres undefined), the Potency is reported as active: 12.6 µM.
For CCC(=O)N1CCc2cc(CNS(=O)(=O)c3ccc(Cl)s3)ccc21, the Potency was inconclusive: 28.2 µM [inhibitor, single point].
In the case of O=S(=O)(c1ccc(Br)s1)N1CCN(CCc2ccccc2)CC1, the Potency is reported as inconclusive: 17.8 µM [inhibitor, single point].
With Cc1onc(-c2ccccc2Cl)c1C(=O)NCCCN1CCOCC1 the “activity, negative = inhibition” value was inactive: -1.4%.
For CCOC1=C2CN(S(=O)(=O)c3ccc(C)cc3)[C@H](c3ccccc3)C[C@@H]2N(S(=O)(=O)c2ccc(C)cc2)[C@H](c2ccccc2)C1, the Potency was inconclusive: 35.5 µM [inhibitor, single point].
With Cc1nc(Sc2nnnn2C2CC2)c2c(-c3ccccc3)csc2n1 the “activity, negative = inhibition” value was inactive: 9.95%.
With Cc1cc(C)cc(N(CC(=O)N2CCCC2)S(C)(=O)=O)c1 the “activity, negative = inhibition” value was inactive: -1.78%.
With COc1ccc(NC(=O)CC2C(=O)NCCN2C(=O)Nc2ccc(C(F)(F)F)cc2)cc1 (centres undefined) the Potency was inconclusive: 22.4 µM [inhibitor, single point].
For CCCCC/C=C/C1=CC(=O)C[C@H](c2ccc(OC)cc2)C1, the Potency was inconclusive: 35.5 µM [inhibitor, single point].
In the case of Cc1cc2c(cc1C)C(c1cc(Br)ccc1F)CC(=O)N2 (centres undefined), the Potency is reported as inconclusive: 22.4 µM [inhibitor, partial curve, poor fit].
In the case of O=C1/C(=C/c2ccncc2)SC(=S)N1Cc1ccccc1, the Potency is reported as inconclusive: 35.5 µM [inhibitor, single point].
With COc1cccc(C(=O)Nc2nc(-c3ccc(S(=O)(=O)N4CCOCC4)cc3)cs2)c1 the “activity, negative = inhibition” value was inactive: 7.68%.
In the case of Cc1cccc(S(=O)(=O)NC(=O)C2(C)CCN2C(=O)Cc2ccc(C(C)(C)C)cc2)c1 (centres undefined), the “activity, negative = inhibition” value is reported as inactive: 0.45%.
In the case of O=C(CSc1nc2ccc(NC(=O)CSc3nnnn3-c3ccccc3)cc2s1)Nc1ccccc1, the Potency is reported as inconclusive: 15.8 µM [inhibitor, partial curve, poor fit].
For CCOC(=O)C1=C(C)N(C)C(=O)NC1c1cc2c(cc1Br)OCO2 (centres undefined), the Potency was inconclusive: 0.631 µM [inhibitor, full curve, poor fit].
With Cc1ccc(C(=O)NCCCNC(=O)c2ccccc2C)cn1 the “activity, negative = inhibition” value was inactive: 6.94%.
With CC1(C(=O)NS(=O)(=O)Cc2cccc(Cl)c2)CCN1C(=O)Cc1cccs1 (centres undefined) the “activity, negative = inhibition” value was inactive: -6.7%.
With COc1ccc(OC)c(NC(=O)Cn2cc(C(=O)c3cccs3)c3ccccc32)c1 the “activity, negative = inhibition” value was inactive: -2.05%.
For COc1ccc(C(=O)n2nc(C#N)c(C#N)c2N)cc1, the Potency was inconclusive: 2.51 µM [inhibitor, full curve, poor fit].
In the case of Cc1ccc(-n2c(=S)[nH]c3sc4c(c3c2=O)CCC4)cc1, the “activity, negative = inhibition” value is reported as inactive: 23.1%.
In the case of Cc1ccc(S(=O)(=O)N2CCN(S(=O)(=O)N3CCC(C)CC3)CC2)cc1C, the “activity, negative = inhibition” value is reported as inactive: -2.69%.
For CCc1[nH]nc(C(=O)N2CCCC(Nc3ccc(C(C)C)cc3)C2)c1C (centres undefined), the Potency was inconclusive: 20 µM [inhibitor, single point].
With CCN1CCN(c2ccc(S(=O)(=O)N3CCOCC3)cc2NC(=O)c2ccc(Cl)cc2Cl)CC1 the “activity, negative = inhibition” value was inactive: -6.67%.
With Cc1c(NC(=O)c2cc3ccccc3o2)cccc1-c1nc2ccccc2o1 the Potency was inconclusive: 15.8 µM [inhibitor, single point].
In the case of CC(C)S(=O)(=O)c1csc(NC(=O)Nc2ccc(Cl)cc2)c1Cl, the Potency is reported as inconclusive: 14.1 µM [inhibitor, single point].
For Cc1cccc(N(C)C(=O)C2CCN(S(=O)(=O)c3cccc4nonc34)CC2)c1, the Potency was inconclusive: 3.55 µM [inhibitor, full curve].
For CN(c1ccccc1)S(=O)(=O)c1ccc(C(=O)N2CCc3ccccc3C2)cc1, the Potency was inconclusive: 10 µM [inhibitor, partial curve, poor fit].
With CCOc1ccc2oc(=O)cc(CN3CCN(C(=O)c4ccc(Cl)cc4)CC3)c2c1 the Potency was inconclusive: 35.5 µM [inhibitor, single point].
For O=C(COc1ccc(Br)cc1CO)Nc1ccc(S(=O)(=O)N2CCCC2)cc1, the Potency was inconclusive: 35.5 µM [inhibitor, single point].
For CCC(Oc1ccccc1)C(=O)Nc1nnc(C(F)(F)F)s1 (centres undefined), the Potency was inconclusive: 11.2 µM [inhibitor, single point].
For COc1ccc(-c2cnc(C(N)=O)c(=O)[nH]2)cc1, the “activity, negative = inhibition” value was inactive: -8.11%.
With COc1ccc(/C=C/C(=O)Nc2ccc(Cl)c(Cl)c2)cc1OC the Potency was inconclusive: 22.4 µM [inhibitor, single point].
For O=C(Cn1c(=O)oc2cc(S(=O)(=O)NCc3ccccc3)ccc21)NCc1ccc(F)cc1, the Potency was inconclusive: 28.2 µM [inhibitor, single point].
In the case of COc1ccc(/C=C/C(=O)Oc2cccc(/C=N/NC(=O)COc3c(C)cccc3C)c2)cc1, the “activity, negative = inhibition” value is reported as inactive: -1.24%.
In the case of COC(=O)[C@H](CC(C)C)NC(=O)N1CCN(c2cccc(C(F)(F)F)c2)CC1, the Potency is reported as inconclusive: 11.2 µM [inhibitor, partial curve, poor fit].
For Cc1ccc(NC(=O)CN(C)CC(=O)Nc2cccc(F)c2)cc1S(=O)(=O)N1CCCCCC1, the Potency was inconclusive: 17.8 µM [inhibitor, single point].
With O=C(CSc1nnc(-c2cccs2)o1)NCc1ccco1 the “activity, negative = inhibition” value was inactive: -0.89%.
For COc1cccc(CNC(=O)CCc2nc(-c3ccc(C)cc3)no2)c1, the Potency was inconclusive: 12.6 µM [inhibitor, single point].
